# ChEMBL document CHEMBL4888484, “Replenishing the malaria drug discovery pipeline: Screening and hit evaluation of the MMV Hit Generation Library 1 (HGL1) against asexual blood stage Plasmodium falciparum ,using a nano luciferase reporter read-out” (2022)
# Out of some 150,000 compounds screened, about 540 (0.36%) showed an effect of 50% or more. The list shows a part of the results.
# Test system: Plasmodium falciparum
# Assay: Primary screen in NF54 nanoGlo assay, in single point, at 2uM, 72h; a lower Z score goes with more inhibition
# Type: functional, Erythrocyte
# Details: timepoint 72 hour
Compound,% Inhibition [%],Z score
Fc1ccc(-c2n[nH]cc2CN2CCCC3(C2)OCCO3)cc1,-13,1.76
Cc1ccc(-n2ncc3c(N4CCCN(C(=O)NC(C)(C)C)CC4)nc(C)nc32)c(C)c1,-5,0.95
N#CCC[C@H](C#N)Cn1nc(N2CCCC2)sc1=S,-2,0.22
N#Cc1cccc(NC(=O)N2CC[C@@H]3CNC[C@@H]32)c1,2,-0.28
Cc1c(C(=O)N2CCN(C)Cc3ccccc32)nnn1Cc1ccc(F)cc1F,-10,1.56
CO[C@@H](C)c1cccc(NCC(=O)Nc2cc(C)nn2C(C)(C)C)c1,0,-0.09
CN1C(=O)N[C@@H]2CN(C(=O)NC3CCC3)CC[C@@H]21,-11,0.97
Cc1cc(Cl)ccc1OCC(=O)Nc1ncc(C)c(-c2ccccc2)n1,8,-1.13
O=C(N[C@H]1C[C@H]2OCC[C@@H]12)c1ccccc1OCc1ccccc1,-5,0.51
N[C@@H]1CCN(C(=O)Cc2ccc(Cl)cc2Cl)C1,-19,2.21
Cc1nn(CC(=O)N(C)[C@@H](C)c2nccs2)c(=O)n1Cc1ccccc1,-5,0.64
CCCc1cc(C(=O)NC(c2ccccn2)[C@H]2C[C@@H](O)C2)[nH]n1 (stereo partly drawn),-2,0.28
Cc1cc(OC2CCN(C(=O)[C@@H]3CC=CCC3)CC2)nc(C)n1,-18,3.47
CC1CC(C)CN(c2snnc2C(N)=O)C1 (stereo not drawn),-22,2.62
CC(C)c1nnc(NC(=O)C2CC=CCC2C(=O)N2CCOCC2)s1 (stereo not drawn),-3,0.57
CCCn1cc(NC(=O)NCc2snnc2C(C)C)nn1,-15,1.91
CCCc1noc(CN2CCCN(C)c3cc(F)ccc32)n1,-7,0.97
Cc1n[nH]cc1CN(C)C(=O)c1cccn1C,-8,0.92
Cc1[nH]ccc1C(=O)N1CCC2(CC1)CC(=O)N(Cc1ccccc1)C2,2,-0.37
Cc1nc(C)c(C)c(NC[C@]2(c3ccccc3)C[C@H](O)C2)n1,0,0.01
COc1cccc(C(=O)NCc2ccc3c(c2)CCN3C(=O)c2ccncc2)c1,-20,1.84
Cc1ccc(O)c(NC(=O)[C@H](C)S(C)(=O)=O)c1,4,-0.52
O=C(Nc1ccc(F)cc1F)c1ccc(S(=O)(=O)N2CCCCC2)o1,-14,1.23
O=C(CCc1nc2ccccc2s1)c1ccc(Br)cc1,-2,0.2
